Molecules are shown by their SMILES. Hit rate of the full screen: of about 52,000 compounds, about 4,300 (8.3%) were called active. Rule as the data show it: active = survival mostly below about 52% (no sharp cut-off); inactive = mostly above about 56%. This is one part of the list.

The subject of this experiment is DeltatarO mutant. Description: S. aureus survival, RN4220 and DeltatarO strains – OD600, teichoic acid synthesis inhibitors, primary screen (AID 463173). To be noted: S. aureus RN4220 wild type/DeltatarO growth, OD600, 18 h, active compounds read low, screened at 18.75 µg/mL (by protocol).
Regarding `COc1ccc(C(=O)CSc2c(C(C)C)cnc3c2c(=O)n(C)c(=O)n3C)cc1`, the survival is inactive: 95%. Consider `CC(C(=O)NCC1CCCO1)N(C(=O)c1snc(C(N)=O)c1N)c1cccc(F)c1` (stereo unspecified), for which the survival was inactive: 67%. Take `Cc1ccc(NC(=O)C2CCN(c3cc(C)nc4c(-c5ccc(Cl)cc5)c(C)nn34)CC2)c(C)c1`: the survival is inactive: 91%.

For the molecule `COc1ccccc1N1CCN(C(=O)CN2C(=O)COc3ccc(S(=O)(=O)N4CCC(C)CC4)cc32)CC1`, the survival was inactive: 77%. To `Cc1ccn2c(=O)cc(COc3ccc(NC(=O)c4ccccc4F)cc3)nc2c1` belongs inactive: 100%.

In the case of `Cn1ncc2nc(SCC(=O)Nc3ccc(Br)cc3F)n(Cc3ccccc3)c(=O)c21`, the survival was active: 29%. As for `CCOc1ccc(NC(=O)CSc2nc3c(oc4ccccc43)c(=O)n2CCOC)cc1`, the survival was inactive: 74%. The figure for `Cc1ccc(-n2nnc(C(=O)Nc3cc(F)ccc3F)c2C)cc1F` is inactive: 108%.

For the molecule `COc1ccccc1NC(=O)c1sc2nc3c(cc2c1N)CCCCCC3`, the survival was inactive: 43%. In the case of `O=C(c1ccccc1)N1c2ncnn2C2(CCCCC2)[C@@H]2CCCC[C@@H]21`, the survival was inactive: 83%. With `Cc1ccccc1C(=O)Nc1cc(-c2ccc(Cl)cc2)nn1-c1ccccc1`, the survival was inactive: 94%.

Consider `COC(=O)CSc1nc(N)c(C#N)c(-c2ccccc2)c1C#N`, for which the survival is inactive: 86%. The figure for `Cc1ccc2c(c1)C(c1ccc(F)cc1)N(C(=O)c1ccc(OC(C)C)cc1)CC(=O)N2` (stereo unspecified) is inactive: 140%; for `Cc1nn(-c2ccc(N3CCOCC3)nn2)c(C)c1CCC(=O)NCc1ccc(F)cc1` it is inactive: 107%; for `Cc1cccc(NC(=O)c2sc3nc(N4CCOCC4)c4c(c3c2N)CC(C)(C)OC4)c1` it is inactive: 91%.

As to `COc1ccc(NC(=O)Cn2ncc3c2-c2ccccc2OC3)cc1Cl`, the survival was inactive: 59%. The figure for `O=C(CSc1nc2c([nH]c3ccccc32)c(=O)n1-c1ccccc1)Nc1ccc2c(c1)OCCO2` is inactive: 94%; for `COc1ccccc1C(=O)Nc1ccc(OCc2cc(=O)n3ccsc3n2)cc1` it is inactive: 114%; for `CCN(CCCNC(=O)c1cc2c(Cl)nc3ccccc3c2s1)Cc1ccccc1` it is inactive: 94%.

Regarding `Cc1ccc(C)c2sc(N3CCN(C(=O)C(C)(C)C)CC3)nc12`, the survival is inactive: 88%. For `CCOc1ccc(CCNC(=O)c2ccc(-n3c(C)cc4c3CCC(C)C4)cc2)cc1OCC` (stereo unspecified), the survival was inactive: 82%.

Take `CC1=C(C(=O)Nc2ccc(C)cc2Cl)C2(CCCCCC2)OC1=O`: the survival is inactive: 89%.

Take `CCN(CC)c1sc(S(=O)(=O)c2ccccc2)nc1S(=O)(=O)c1ccc(C)cc1`: the survival was inactive: 67%. With `CCC(=O)c1cc2c(cc1NC(=O)c1ccccc1F)OCCO2`, the survival is inactive: 68%. Take `COc1cccc2cc(-c3nnc(Nc4c(F)cccc4F)s3)c(=O)oc12`: the survival is inactive: 95%. Turning to `O=C(/C=C/c1ccco1)CC1(O)C(=O)Nc2ccccc21` (stereo unspecified), the survival is inactive: 84%. For `CSc1ncc(C(=O)N2CCN(c3cc(Cl)ccc3C)CC2)c(C)n1`, the survival was inactive: 57%. To `CCCN(C(=O)CCc1nc(-c2ccc(OC)cc2)no1)c1ccccc1F` belongs active: 3%; to `COc1cc(-c2nc(Cn3nnc(C(=O)Nc4ccc(C)cc4C)c3C)c(C)o2)cc(OC)c1OC`, inactive: 61%; to `Cc1oc(-c2ccccc2F)nc1CS(=O)(=O)CC(=O)NCCc1ccc(Cl)cc1`, inactive: 109%. As for `COc1ccc(N2CCN(c3oc(-c4ccc(COc5cccc(C)c5)o4)nc3C#N)CC2)cc1`, the survival is inactive: 102%. Take `COc1ccc(CN2CCC(C(=O)NC3CCCC3)CC2)cc1`: the survival is inactive: 100%.

As for `Cc1ccc(NC(=O)CN(C)S(=O)(=O)c2ccc3[nH]c4c(c3c2)CCCC4)c(Cl)c1`, the survival is inactive: 95%.

Regarding `COc1ccc(CC(=O)NCCc2csc3nc(-c4ccccc4F)nn23)cc1`, the survival was inactive: 61%. In the case of `COc1cccc(-n2c(-c3cccc(F)c3)nc3c(cnn3-c3ccc(C)cc3)c2=O)c1`, the survival is inactive: 76%. As to `Cc1c(-c2ccc(Cl)cc2)c(=O)oc2ccc(OC(=O)N3CCOCC3)cc12`, the survival was inactive: 87%. As to `COc1ccccc1CNC(=O)CC(c1ccc(OC)c(OC)c1)N1Cc2ccccc2C1=O` (stereo unspecified), the survival was inactive: 83%. On to `CCc1cnc2c(c1SCC(=O)c1ccc(OC)cc1)c(=O)n(C)c(=O)n2C`, for which the survival is inactive: 72%. As to `Cc1ccccc1CN1C(=O)c2ccccc2Sc2ccc(C(=O)NC3CCCC3)cc21`, the survival is inactive: 102%. Regarding `O=S(=O)(NCc1ccc(Cl)cc1)c1ccc(-c2cnc(C3CC3)o2)cc1`, the survival is inactive: 85%. For the molecule `COc1ccc(OC)c(/C=C/C(=O)Nc2ccc(C(=O)OCCC(C)C)cc2)c1`, the survival was active: 33%. Regarding `COCCn1nnnc1C(c1cc2c(C)ccc(C)c2[nH]c1=O)N1CCCc2ccccc21` (stereo unspecified), the survival was inactive: 99%. For `Cc1ccc(Cl)cc1-n1ncc2c(N3CCCCCC3)ncnc21`, the survival is inactive: 108%. In the case of `CCCCN(CCCC)C(=O)C1CCN(S(=O)(=O)c2cccc3nsnc23)CC1`, the survival is inactive: 116%. For `CCN(CC)CCNC(=O)Nc1ccc2c(c1)N(Cc1ccccc1)C(=O)c1ccccc1S2`, the survival was inactive: 131%. `CCOC(=O)c1cn(CC2CC2)c2cc(F)c(F)cc2c1=O`: the survival was inactive: 101%.

Turning to `COc1ccc(N2CC(NC(=O)c3ccc(S(=O)(=O)N4CCOCC4)cc3)CC2=O)cc1OC` (stereo unspecified), the survival was inactive: 67%.

For `CCCCOc1cccc(C(=O)N(Cc2cccs2)c2ccc(OC)cc2)c1`, the survival is inactive: 75%.

As for `CCCCNC(=O)C1CCC(CNS(=O)(=O)c2ccc(Cl)cc2)CC1` (stereo unspecified), the survival is inactive: 91%. `CCc1ccc(S(=O)(=O)N(C(=O)Oc2ccccc2)c2ccc3oc(C)c(C(=O)OC)c3c2)cc1`: the survival is inactive: 63%. The figure for `CCCCn1c(SCC(=O)NCc2ccco2)nc2ccccc2c1=O` is inactive: 90%; for `CC(C)(C)c1ccc(-c2nc(SCC(=O)Nc3ccc(Cl)cc3)[nH]c(=O)c2C#N)cc1` it is active: -2%.

In the case of `CC(=O)NCCn1c(SCC(=O)Nc2ccc(C)cc2)nc2ccccc2c1=O`, the survival is inactive: 92%. For the molecule `CC(C)N(Cc1ccc(C(=O)O)o1)C(C)C`, the survival is inactive: 83%. To `N=c1n(CCN2CCCCC2)c2ccccc2n1CC(=O)c1ccc(Br)s1` belongs inactive: 114%; to `COc1ccc(NC(=O)c2cc(CN3CCCC3)on2)cc1Cl`, inactive: 96%.

(Values after PubChem BioAssay AID463173 (ICCB-Longwood Screening Facility, Harvard Medical School, 2010).)
